Test results taken from PubChem BioAssay AID504832 (National Center for Advancing Translational Sciences (NCATS), 2011).
Out of some 310,000 compounds screened, about 18,000 (5.8%) were called active. Inconclusive means that the source gave no clear call. Such entries were picked first, then a sample of the others. Calls come from the whole dose curve; as a rule, active = well fitted inhibition curve with a large enough effect; inconclusive = small, poorly fitted or top-dose-only effect, or another doubt; inactive = no such curve, though single readings can be large or run the other way. No potency is given beside an inconclusive call; the fits are too rough.

experiment: Primary qHTS for delayed death inhibitors of the malarial parasite plastid, 48 hour incubation; settings: P. falciparum luciferase growth in erythrocytes; series mostly up to 28.7 µM; activity change, negative = inhibition: at the top concentration
In short: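 A one-generation exposure of luciferase-tagged malaria parasites in RPMI 1640/Albumax erythrocyte culture, 37 C and 5% CO2. Inhibition is inferred from decreased luminescence after adding detection reagent.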
% is set by controls: 0 for no effect and ±100 for the full control effect; potency is the fitted concentration of half-maximal effect; tags give direction and shape of the fitted curve.

Row | SMILES | Potency | activity change, negative = inhibition
1 | Cc1ccc2nc(-c3cccc(Br)c3)cc(C(=O)NC3=NCCS3)c2c1 | active: 4.65 µM | 
2 | COc1ccc(/C=C2\SC(=O)N(CCNC(=O)C3CC(=O)N(c4ccccc4)C3)C2=O)cc1 (stereo unspecified) | inconclusive [inhibitor, single point] | 
3 | Cc1ccc(C)c(NC(=O)CN(C)C(=O)[C@@H](NC(=O)c2ccc(C(C)(C)C)cc2)C(C)C)c1 | inconclusive [inhibitor, single point] | 
4 | CCOCCCn1c(=N)c(C(=O)NCc2ccc3c(c2)OCO3)cc2c(=O)n3ccccc3nc21 | inconclusive [inhibitor, single point] | 
5 | COc1ccc(NC(=O)Cn2cc(C(=O)c3ccco3)c3ccccc32)cc1 | inconclusive [inhibitor, single point] | 
6 | O=C(Nc1ccc(CN2CCCCC2)cc1)Nc1ccc(Br)cc1Cl | inconclusive [inhibitor, partial curve, poor fit] | 
7 | c1ccc(C2[C@H]3CN(CC4CCCCC4)[C@H](c4ccccc4)C34CC2(c2cccnc2)C4)cc1 (stereo partly specified) | active: 4.15 µM | 
8 | COc1ccccc1-n1cc(C(=O)NCC(=O)N2CCN(Cc3ccccc3)CC2)c2ccccc2c1=O | inconclusive [inhibitor, full curve, poor fit] | 
9 | CC1CCCN(CC(=O)Nc2ccc(S(=O)(=O)N3CCCCC3)cc2)C1 (stereo unspecified) | inconclusive [inhibitor, single point] | 
10 | CC(Sc1nc(-c2ccccc2)cc(C(F)(F)F)n1)C(=O)N1CCCCC1 (stereo unspecified) | inconclusive [inhibitor, single point] | 
11 | COc1ccc(C2Nc3ccccc3C(=O)N2NS(=O)(=O)c2ccccc2)cc1 (stereo unspecified) |  | inactive: -22.4%
12 | COCCn1c(N)c(Sc2ccccc2[N+](=O)[O-])c(=O)[nH]c1=O | inconclusive [inhibitor, single point] | 
13 | N#CCCN(C(=O)COC(=O)CCc1nc2ccccc2c(=O)[nH]1)c1ccccc1F |  | inactive: -7.69%
14 | COC(=O)C1=C(c2ccc(OCc3ccccc3)cc2)C[C@@H]2CC[C@H]1N2C(=O)NCc1cccc(C(F)(F)F)c1 | active: 4.15 µM | 
15 | COc1cc(NC(=O)C2CCCO2)c(OC)cc1Cl (stereo unspecified) |  | inactive: 1.42%
16 | CCOC(=O)C1CCN(C(=O)c2ccc3c(c2)C(=O)N(c2ccccc2C)C3=O)CC1 | inconclusive [inhibitor, partial curve, poor fit] | 
17 | CC(C)(C)OC(=O)N1CCC(NC(=O)c2[nH]cnc2C(=O)Nc2ccccc2)CC1 | inconclusive [inhibitor, single point] | 
18 | CC[C@H](C)[C@@H](NC(=O)O[C@@H]1C(=O)c2cc(Br)ccc2O[C@H]1c1cccc(OC)c1)C(=O)OC |  | inactive: 22.6%
19 | CCOC(=O)c1c(NC(=O)CSc2ccccc2C(=O)O)sc(C)c1C |  | inactive: 65.5%
20 | CN1CCN(C(=O)C23CCC(C)(c4nc5ccccc5nc42)C3(C)C)CC1 (stereo unspecified) | inconclusive [inhibitor, full curve, poor fit] | 
21 | CS(=O)(=O)N1CCN(c2nc(-c3ccc(F)cc3)cs2)CC1 |  | inactive: 33.3%
22 | CCOc1ccc(S(=O)(=O)NCc2ccc(Cl)cc2)c2cccnc12 | inconclusive [inhibitor, partial curve, poor fit] | 

Row | SMILES | Potency | activity change, negative = inhibition
23 | C=CCc1c(C)c(C#N)c2nc3ccccc3n2c1N1CCCCC1 | inconclusive [inhibitor, partial curve, poor fit] | 
24 | COc1ccccc1OCC(=O)NN=C(Cc1ccccc1)Cc1ccccc1 | inconclusive [inhibitor, full curve, poor fit] | 
25 | O=C(COC(=O)/C=C/c1ccccc1[N+](=O)[O-])NCC1CCCO1 (stereo unspecified) |  | inactive: 0%
26 | Oc1ccc(/C=C/c2ccnc3ccccc23)cc1 | inconclusive [inhibitor, single point] | 
27 | Cc1ccc(OC(=O)c2cccnc2)cc1 |  | inactive: -1.87%
28 | Cc1ccc(C(=O)Nc2ccc(S(=O)(=O)N3CCCC3)cc2)s1 | inconclusive [inhibitor, single point] | 
29 | CCn1c(=N)n(CC(=O)c2cccc(OC)c2)c2ccccc21 | inconclusive [inhibitor, single point] | 
30 | NNC(=S)Nc1cccc(-c2n[nH]c(=S)o2)c1 |  | inactive: -9.39%
31 | CCN(CC(=O)Nc1c(C(=O)OC)[nH]c2ccc(Cl)cc12)c1ccc2c(c1)OCO2 | active: 13.1 µM | 
32 | Cn1c(OCc2ccc3c(c2)OCO3)nc2c1c(=O)n(Cc1ccc(Cl)c(Cl)c1)c(=O)n2C | inconclusive [inhibitor, partial curve, poor fit] | 
33 | CC1Nc2ncnc(N3CCOCC3)c2N(Cc2ccccc2)C1=O (stereo unspecified) | inconclusive [inhibitor, single point] | 
34 | CC(CNC(=O)CN1C(=O)NC2(CCCCC2C)C1=O)c1ccccc1 (stereo unspecified) | inconclusive [inhibitor, single point] | 
35 | CCN1C(=O)[C@H]2[C@@H](c3ccc(C)cc3)N3C(=O)N(c4ccc(C(F)(F)F)cc4)C(=O)[C@@]3(Cc3ccccc3)[C@H]2C1=O | inconclusive [inhibitor, single point] | 
36 | C=CCCN(C(CC(C)C)C(=O)OC)S(=O)(=O)c1cc(Br)ccc1Br (stereo unspecified) | inconclusive [inhibitor, partial curve] | 
37 | CC(CNCC1CCCO1)COc1cccc2ccccc12 (stereo unspecified) | inconclusive [inhibitor, single point] | 
38 | COC(=O)C1=C(C)N(Cc2ccccc2)C(=NCc2ccc(OC)cc2)N[C@H]1c1cccc(F)c1 | inconclusive [inhibitor, partial curve] | 
39 | COc1ccc(C(=O)C2CCCN(C(=O)c3noc4c3CCCC4)C2)c(C)c1 (stereo unspecified) |  | inactive: 2.58%
40 | CC(C)(C)CN1CCN(CCCc2ccccc2)C(CCO)C1 (stereo unspecified) | inconclusive [inhibitor, partial curve, poor fit] | 
41 | COc1cccc(C(=O)NCCSc2ccc(C)cc2)c1 |  | inactive: -13.6%
42 | Cc1ccc(C)c(C(=O)COC(=O)CN2C(=O)C3C4CCC(C4)C3C2=O)c1 (stereo unspecified) |  | inactive: -11%
43 | CC1CCCN(S(=O)(=O)c2ccc(N(C(=O)c3cnccn3)C(C(=O)NC3CCCCC3)c3cccs3)cc2)C1 (stereo unspecified) | active: 11.7 µM | 
44 | COc1cc(/C=N/NC(=O)c2cccnc2)ccc1OCC(=O)Nc1c(C)cc(C)cc1C |  | inactive: -11.1%

Row | SMILES | Potency | activity change, negative = inhibition
45 | O=C(c1cc2ccccc2o1)N(C1CC1)C1(C(=O)Nc2ccccc2)CCCC1 | inconclusive [inhibitor, single point] | 
46 | Cc1oc(-c2ccccc2Cl)nc1CSc1nc2c(c(=O)[nH]1)CCCC2 | inconclusive [inhibitor, partial curve, poor fit] | 
47 | COc1cccc(NC(=O)CN(C)C(=O)/C=C/c2ccc3ccccc3n2)c1 | active: 11.7 µM | 
48 | Cc1cc(N2CCN(c3ccc(F)cc3)CC2)nc(-c2ccccc2)n1 | inconclusive [inhibitor, single point] | 
49 | CC(=O)NC(Cc1ccccc1C)C(=O)NC1CCN(C(=O)c2cccc(C)c2)CC1 (stereo unspecified) |  | inactive: -6.25%
50 | O=C(C1CCN(S(=O)(=O)c2ccccc2F)CC1)N1CCN(Cc2ccc3c(c2)OCO3)CC1 | inconclusive [inhibitor, partial curve, poor fit] | 
51 | CCc1cc(C(=O)Nc2nc(-c3ccccn3)cs2)sc1C | active: 4.15 µM | 
52 | COc1ccc(O)c(/C=C2/SC(=S)N(Cc3ccccc3)C2=O)c1 | inconclusive [inhibitor, full curve, poor fit] | 
53 | CCN(CC)S(=O)(=O)c1ccc(Cl)c(C(=O)NC2CCN(Cc3ccccc3)CC2)c1 | inconclusive [inhibitor, partial curve, poor fit] | 
54 | CC1(C)CC(=O)C=C(c2cccc3c2Oc2ccccc2S3)C1 | inconclusive [inhibitor, single point] | 
55 | CC(C)OCC(O)CN1CCN(C(c2ccccc2)c2ccccc2)CC1 (stereo unspecified) | inconclusive [inhibitor, single point] | 
56 | COc1ccc(-c2nc3ncccn3c2Nc2ccccc2)cc1 | inconclusive [inhibitor, single point] | 
57 | Cc1cccc(OCCCC(=O)NCc2ccco2)c1 | inconclusive [inhibitor, full curve, poor fit] | 
58 | Cc1ccc(C2C3C(=O)N(c4ccc(C)cc4)C(=O)C3N3CCCN23)cc1 (stereo unspecified) | inconclusive [inhibitor, single point] | 
59 | CC(C)(C)c1ccc(OCCC(=O)NNC(=O)c2ccccc2)cc1 | inconclusive [inhibitor, single point] | 
60 | COc1cc(NC(=O)COc2cccc3c2OC(C)(C)C3)cc(OC)c1OC | inconclusive [inhibitor, single point] | 
61 | O=C(NCc1cc([N+](=O)[O-])ccc1O)c1cc(-c2ccncc2)nc2ccccc12 |  | inactive: -23.8%
62 | CN(C(=O)C1CC1)C1CCS(=O)(=O)C1 (stereo unspecified) |  | inactive: 11.1%
63 | Cc1ccc(N(Cc2cc3ccccc3[nH]c2=O)C(=O)c2cccs2)cc1 | inconclusive [inhibitor, partial curve] | 
64 | N#Cc1ccc(Cl)cc1NC(=O)CNCc1cccs1 |  | inactive: 4.32% [at 0.00184 µM]
65 | O=C(Nc1ccc(N2CCOCC2)cc1)c1ccc(Cl)cc1N1CCCC1=O | inconclusive [inhibitor, single point] | 
66 | O=C(Nc1cccc(F)c1)c1cccc2c1C(=O)N(C1CCCCC1)C2 | inconclusive [inhibitor, single point] | 
